According to the supplement of paper PMC3334620:
In all, about 33,000 sequences were measured (“E-score (-0.5 to 0.5)”: median about -0.053, highest 2% from about 0.37 on). The list shows a part of the results.

Target: Hap1 (UniProt P0CE41)
Assay: PBM E-score (8-mer binding enrichment) (E-score (-0.5 to 0.5)); higher = stronger / more preferred TF binding; most listed sequences are background and not binding sites
Conditions: protein concentration: 200 nM; construct: GST-DNA-binding domain
Procedure, shortened: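 Universal all-10-mer Agilent arrays, double-stranded by primer extension on fresh or once-stripped slides, were probed with about 100-200 nM GST-tagged yeast transcription factors made by PURExpress. Fluorescent anti-GST detected bound protein, and masliner normalised the scans. E-scores from the Universal PBM Analysis Suite were given to each ungapped eight-base word pooled with its reverse complement.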

Sequence of UniProt P0CE41 (P0CE41 whole entry): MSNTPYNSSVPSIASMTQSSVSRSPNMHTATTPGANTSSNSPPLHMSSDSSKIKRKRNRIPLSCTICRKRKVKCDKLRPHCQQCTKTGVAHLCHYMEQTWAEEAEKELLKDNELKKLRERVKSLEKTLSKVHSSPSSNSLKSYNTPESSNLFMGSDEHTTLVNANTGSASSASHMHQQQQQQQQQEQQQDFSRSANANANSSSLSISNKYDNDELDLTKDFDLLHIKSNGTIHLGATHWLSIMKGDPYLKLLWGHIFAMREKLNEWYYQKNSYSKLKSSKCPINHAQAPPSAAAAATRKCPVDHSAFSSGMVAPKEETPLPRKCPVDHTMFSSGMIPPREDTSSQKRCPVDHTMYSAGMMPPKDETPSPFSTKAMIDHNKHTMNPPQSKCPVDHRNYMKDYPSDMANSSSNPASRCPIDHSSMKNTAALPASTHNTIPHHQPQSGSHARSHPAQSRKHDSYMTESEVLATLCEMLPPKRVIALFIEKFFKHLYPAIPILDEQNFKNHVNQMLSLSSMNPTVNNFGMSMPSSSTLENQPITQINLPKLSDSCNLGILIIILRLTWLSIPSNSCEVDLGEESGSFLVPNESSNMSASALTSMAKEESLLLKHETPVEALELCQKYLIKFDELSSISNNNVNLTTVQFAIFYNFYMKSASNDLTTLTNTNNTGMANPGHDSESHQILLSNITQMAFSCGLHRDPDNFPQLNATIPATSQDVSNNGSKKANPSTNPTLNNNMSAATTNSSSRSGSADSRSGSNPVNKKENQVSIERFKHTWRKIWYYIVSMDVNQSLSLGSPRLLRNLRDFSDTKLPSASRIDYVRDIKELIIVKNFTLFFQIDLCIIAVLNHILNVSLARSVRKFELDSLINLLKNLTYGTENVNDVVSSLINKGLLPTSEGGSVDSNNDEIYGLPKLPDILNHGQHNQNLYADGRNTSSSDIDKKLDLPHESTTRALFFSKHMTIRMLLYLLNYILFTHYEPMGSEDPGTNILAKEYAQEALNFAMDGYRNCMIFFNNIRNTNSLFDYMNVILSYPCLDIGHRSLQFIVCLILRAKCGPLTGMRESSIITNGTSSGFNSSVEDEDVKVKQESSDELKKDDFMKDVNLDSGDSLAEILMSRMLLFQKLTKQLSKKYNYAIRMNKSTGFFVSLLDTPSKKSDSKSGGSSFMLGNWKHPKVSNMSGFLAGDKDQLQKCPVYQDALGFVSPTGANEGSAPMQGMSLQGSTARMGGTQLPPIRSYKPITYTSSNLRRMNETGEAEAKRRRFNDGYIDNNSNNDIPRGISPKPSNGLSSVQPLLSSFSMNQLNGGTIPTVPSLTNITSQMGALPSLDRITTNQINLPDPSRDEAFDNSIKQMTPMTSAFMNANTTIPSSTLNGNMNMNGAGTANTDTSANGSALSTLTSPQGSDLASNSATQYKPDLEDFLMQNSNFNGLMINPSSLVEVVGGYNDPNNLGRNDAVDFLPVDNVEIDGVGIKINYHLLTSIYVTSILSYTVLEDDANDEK

Sequence | PBM E-score
ATACTAGC | 0.0485
GATGACTA | -0.195
GGATCAAC | 0.132
CAATGTAC | -0.294
CGGCTAAC | 0.216
GATTTCCC | 0.104
ATTAGGAA | 0.0168
AACGTTAA | 0.00437
AGCGGACT | 0.287
AGATCTTC | -0.0164
ATTGCTGA | -0.219
GATAGAAC | 0.0757
ATCCGGAC | 0.439
CTGTAATA | 0.108
ATAAAAAT | -0.0103
CCCGGGGA | 0.359
CTCGAGCC | -0.0212
AAGAACGC | -0.011
ATTGGTTG | -0.269
GAATGTAC | -0.0234
CCCCATTA | -0.149
ATTTACAC | -0.0353
CCGGCCAG | 0.351
CGGTAGAC | 0.22
AATTGCGA | 0.0482

Sequence | PBM E-score
AACGTCCT | -0.141
AGACAAGA | 0.14
TAACACAA | -0.167
AGCTTGGA | -0.265
ACAGGTCC | 0.138
AATATCAA | -0.125
GATCGAAA | 0.121
AAGAGTTC | -0.153
GAAGATTC | 0.051
GAAAGTTC | -0.0221
ATAAGGTA | -0.0129
TCCTTCGA | -0.0371
CCGCCTAA | 0.0232
GCTGCCGA | 0.161
GTACTCTA | -0.244
ACAACGCT | -0.153
AGTAGGTA | -0.138
CTTTCGCC | 0.143
GAACACTC | 0.192
GGTGCGAC | -0.0564
CAATCTAC | -0.153
GCTCGGCA | 0.253
CTGAGTAC | -0.158
CCGGCATA | 0.268
CGTCTAAA | -0.0423

Sequence | PBM E-score
CAGAATAA | -0.155
AGGCCTAG | -0.275
AACCCTAT | -0.182
AGTTCAAA | 0.0357
GCATTATA | -0.075
ATAAATAG | 0.151
CTGCAGAC | -0.128
GCTCAATA | -0.0662
CCAGATAC | -0.0844
TCCTGTCA | -0.199
CTAGGAAG | -0.318
ACTGCCCC | -0.0898
AAGTTCGC | -0.0822
TCAGTAGA | -0.241
AAGTACAT | 0.0278
GGAATGAA | 0.102
CTTTAGAC | -0.202
GTCTATTA | -0.0988
CGTGGTTC | 0.0597
CACCCGTG | -0.138
AATTCCCC | 0.189
AGGCGATG | -0.0588
CGAACTCG | 0.192
CCTCAGCA | -0.195
GAGAGGAC | -0.149

Sequence | PBM E-score
GAACTGTC | 0.00192
TTATAAAA | 0.0188
ACTCGCAG | -0.0512
CCTATTCA | 0.0229
AACTCCCC | 0.103
TCTACTCA | -0.189
CCGTAATC | 0.251
CACTTGGC | -0.0331
CCGTCGTA | 0.0926
CCTTAGAG | -0.229
GTATGGAC | 0.214
GCGCACGA | 0.0826
GGATATCA | 0.159
AAGGACCC | -0.0195
AAGACCCT | -0.15
GAAAATCC | 0.167
ACGAGATA | -0.162
AACAATGC | -0.0343
TCTCCACA | -0.243
CAGAGGCC | -0.283
CACTGCGG | 0.0606
CCTCGATA | -0.0037
AGTCTGGA | -0.209
AACAAACG | -0.042
GCTTCCTA | -0.0413

Sequence | PBM E-score
TCTCTACA | -0.196
GCGGTCCC | 0.0699
CAGAGAAC | -0.318
TTAGGGAA | -0.0631
AGGCACGA | -0.0945
ATGAAAGC | 0.0164
CCTAGAGC | -0.0873
CACGCCTA | -0.235
CGGATTAC | 0.228
GGCTTTCA | -0.00366
GTTTCACA | -0.253
CGTTGGAG | -0.177
ACGTGCCC | -0.0044
GCCGCCCA | 0.0642
GACTGCCA | -0.0454
ACGCACAA | -0.16
AGTCAAAG | -0.13
AATGAAGG | -0.199
ACAGTTTA | -0.162
CAAGTCAC | -0.0876
GAGCACCC | 0.0849
GGGGATAC | 0.252
CAGATTTC | -0.0179
GCGCACAC | 0.00338
CGCAACGC | 0.0985

Sequence | PBM E-score
ATTGACTC | -0.0645
ATGTTCGA | -0.0386
GTCAGGGA | -0.167
GCTCGGTA | 0.321
AGCATAAC | -0.0647
TACGGATA | 0.266
ATACAAGC | 0.0326
CGACTGGC | 0.0519
ACTTTATA | 0.0306
ACATGTGA | -0.192
CTGTTGAC | -0.268
CAGGGTGG | -0.117
CAAAATAA | -0.128
AGATACGC | 0.0318
ACGTCCTC | -0.132
CACATATC | -0.0269
ATCTGAGA | -0.25
ATTCTACC | -0.0572
GATGACCA | -0.0481
GATCATAC | 0.021
AGGAATGG | -0.227
AGACTTCC | -0.105
AATACACC | 0.159
CGACCTAG | -0.0285
GCTTGAAA | -0.0416

Sequence | PBM E-score
GCGCTTCC | 0.149
ATAACGTC | 0.0738
GGCAGACA | 0.0194
GCCCCAAA | -0.119
TCGCTTCA | -0.0728
CTTTGTCA | -0.0951
ACCGCAAG | 0.139
AAGGCGGG | -0.00881
CTCAGCCC | -0.232
GTCGCTCA | -0.0885
TCCTTCAA | -0.18
ACGATGTG | -0.0816
TCCATCCA | -0.214
AGCTACGA | -0.161
CATTCTCC | 0.0191
CGATTTTC | 0.147
ACGCGTCG | 0.185
CGCGTGTA | -0.0294
CCTAGTCC | -0.033
TCTGTACA | -0.00729
AGATCTGA | -0.221
ACGTAAAG | -0.171
